Laboratory results taken from PubChem BioAssay (NCI).
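Cultured in 96-well plates, cells were exposed to test compound for 48 hours across five concentrations. Here, GI50 denotes the concentration required for 50% inhibition of growth. The concentration for full growth arrest is given as TGI.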

Tested on: NCI-H322M lung
Assay: NCI tumour cell line growth inhibition, 48 h

SMILES | GI50 [µM] | TGI [µM]
C#C[C@]1(O)CC[C@H]2[C@@H]3CC=C4c5sc(Nc6ccc(C(F)(F)F)cn6)nc5CC[C@]4(C)[C@H]3CC[C@@]21C | 7.19 | 39.1
N#Cc1c(-c2ccc(Cl)cc2)nc2n[nH]c(-c3ccc(Cl)cc3)c2c1-c1ccc(C(F)(F)F)cc1 | 2.4 | 13.2
Cc1noc2c(Cc3ccccc3)nn(CC(=O)N/N=C/c3ccc(Cl)cc3)c(=O)c12 | 6.07 | > 100
N[C@@H](CSSC[C@H](N)C(=O)Nc1ccc(OCC2CCCC2)cc1)C(=O)Nc1ccc(OCC2CCCC2)cc1 | 0.191 | 0.434
N#Cc1ccc(C(=O)CSc2nc3c(c(Nc4ccc(S(N)(=O)=O)cc4)n2)CCC3)cc1 | > 22.5 | > 22.5
CC1=C(CCC=O)C2=C(C)C3(CC3)[C@@](C)(O)C(=O)C2=C1 | 0.182 | 0.552
